Data published in the RNAGym collection of RNA variant scans (doi:10.1093/nar/gkz1192).
The source gives no read counts; variants with many changes may rest on few reads.

B1: CPEB3 Ribozyme (parent)
chain: UAACAGGGGGCCACAGCAGAAGCGUUCACGUCGCAGCCCCUGUCAGAUUCUGGUGAAUCUGCGAAUUCUGCUGUAUAUCUC

Variants of: B1
Experiment: self-cleavage, relative activity (ratio to wild type); higher = more cleavage; in vitro, sequencing
Outline: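 CPEB3 self-cleaving ribozyme mutant libraries were made by rounds of error-prone PCR, barcoded, and transcribed in vitro with T7 RNA polymerase for 5 hours at 37°C. Cleavage occurred during transcription and a 15 min DNase I step before EDTA stop. RNAs were reverse transcribed with template switching and Illumina-sequenced, with DNA sequencing mapping barcodes to variants. Relative activity is the variant's cleaved/total read fraction divided by wild type's (minimum 5 reads), averaged across three batches.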

Variant | self-cleavage
UAACAGGGGGCCACAGCAGAAGCGUUCACGUCGCAGCCCCUGUCAGAUUCUGGUGGAUCUGCGAAUUCUGACGUAUACCGC [A56G C71A U72C U78C U80G] | 0.61
UAACAGGGGGCCACAGCAGAAGCGUUCACGUCGCAGCCCCUGUCAGAUUCUGGUGAGUCAGCGAACUCUGCUGUAUGUCUC [A57G U60A U66C A77G] | 0.26
UAACAGGGGGCCACAGCAGAAGCGUUCACGUCGCAGCCCCUGUCAGAUUCUGGUAAAUCUGCGAAUUCUGCAGUAUAACUC [G55A U72A U78A] | 0.36
UAACAGGGGGCCACAGCAGAAGCGUUCACGUCGCAGCCCCUGUCAGAUUCUGGUAAGUCUGCGAAUUCUGCUGUAUGUCUC [G55A A57G A77G] | 0.48
UAACAGGGGGCCACAGCAGAAGCGUUCACGUCGCAGCCCCUGUCAGAUUCUGGUGGAUCUGCGAAUUCUGCAGUAUAUCGC [A56G U72A U80G] | 1.17
UAACAGGGGGCCACAGCAGAAGCGUUCACGUCGCAGCCCCUGUCAGAUUCUGGUGGAUCUGGGAAUUCUGCCGUAUAUCUC [A56G C62G U72C] | 0.43
UAACAGGGGGCCACAGCAGAAGCGUUCACGUCGCAGCCCCUGUCAGAUUCUGGUGAGUCUGCGGAUUCUGUUGUAUAUCUC [A57G A64G C71U] | 0.42
UAACAGGGGGCCACAGCAGAAGCGUUCACGUCGCAGCCCCUGUCAGAUUCUGGUGGAUCUGCGAAUUCUGCUGCAUAUCCC [A56G U74C U80C] | 1.2
UAACAGGGGGCCACAGCAGAAGCGUUCACGUCGCAGCCCCUGUCAGAUUCUGGUGGAUCUGCGAAUUCUGCUGUAUCACUC [A56G A77C U78A] | 0.75
UAACAGGGGGCCACAGCAGAAGCGUUCACGUCGCAGCCCCUGUCAGAUUCUGGUGGAUCCGCGAAUUCUGCUGUAUAUCAC [A56G U60C U80A] | 0.21
UAACAGGGGGCCACAGCAGAAGCGUUCACGUCGCAGCCCCUGUCAGAUUCUGGUGGAUCUGCGAGUCCUGCUGUAUAUCCC [A56G A65G U67C U80C] | 0.12
UAACAGGGGGCCACAGCAGAAGCGUUCACGUCGCAGCCCCUGUCAGAUUCUGGUGAGUAUACGAAUUCUGCUGUAUAUCUC [A57G C59A G61A] | 0.12
UAACAGGGGGCCACAGCAGAAGCGUUCACGUCGCAGCCCCUGUCAGAUUCUGGUGGAUCUGCGAAUUCUGCUGUAAAUCCC [A56G U76A U80C] | 0.74
UAACAGGGGGCCACAGCAGAAGCGUUCACGUCGCAGCCCCUGUCAGAUUCUGGUGUAUAUGCGAAUUCUGCUGUAUUUCUC [A56U C59A A77U] | 0.06
UAACAGGGGGCCACAGCAGAAGCGUUCACGUCGCAGCCCCUGUCAGAUUCUGGUGGAUCUGUGAAUUCUGCAGUAUAUCUC [A56G C62U U72A] | 0.28
UAACAGGGGGCCACAGCAGAAGCGUUCACGUCGCAGCCCCUGUCAGAUUCUGGUGGAUCCGCGAAUUCUGCUCUAUAUCUC [A56G U60C G73C] | 0.55
UAACAGGGGGCCACAGCAGAAGCGUUCACGUCGCAGCCCCUGUCAGAUUCUGGCGAAUCUGCGAAUUCUGCAGUGUAUCUC [U54C U72A A75G] | 1.29

Variant | self-cleavage
UAACAGGGGGCCACAGCAGAAGCGUUCACGUCGCAGCCCCUGUCAGAUUCUGGUGGAUCUGCGUAUUAUGCUGUACAUCUC [A56G A64U C68A U76C] | 0.16
UAACAGGGGGCCACAGCAGAAGCGUUCACGUCGCAGCCCCUGUCAGAUUCUGGUGAGUCUGCGAAUUCUGCUGUACUUCUC [A57G U76C A77U] | 0.96
UAACAGGGGGCCACAGCAGAAGCGUUCACGUCGCAGCCCCUGUCAGAUUCUGGUGGAUCCGCGAAUUCUGCAGUAUAUCUC [A56G U60C U72A] | 0.39
UAACAGGGGGCCACAGCAGAAGCGUUCACGUCGCAGCCCCUGUCAGAUUCUGGUGGGUCUGCGAAUUCAGCUGUAUAUCUC [A56G A57G U69A] | 0.15
UAACAGGGGGCCACAGCAGAAGCGUUCACGUCGCAGCCCCUGUCAGAUUCUGGUGGAUCUGCGAAUCCUGCAGUAUAUCUC [A56G U67C U72A] | 0.23
UAACAGGGGGCCACAGCAGAAGCGUUCACGUCGCAGCCCCUGUCAGAUUCUGGUGAGUCUGCGAACUCUGCUGUAUAUCGC [A57G U66C U80G] | 0.31
UAACAGGGGGCCACAGCAGAAGCGUUCACGUCGCAGCCCCUGUCAGAUUCUGGUGAGCCUGCGAAGUCUGCUGUAUAUCUC [A57G U58C U66G] | 0.23
UAACAGGGGGCCACAGCAGAAGCGUUCACGUCGCAGCCCCUGUCAGAUUCUGGUUAAUCGGCGAAUUCCGCUGUAUAUCUC [G55U U60G U69C] | 0.19
UAACAGGGGGCCACAGCAGAAGCGUUCACGUCGCAGCCCCUGUCAGAUUCUGGUGGAUCUGCGAAAUCUGCUGUAUUUCUC [A56G U66A A77U] | 0.53
UAACAGGGGGCCACAGCAGAAGCGUUCACGUCGCAGCCCCUGUCAGAUUCUGGUGCAUCUGCGGAUUCUGCUGUAUACCUC [A56C A64G U78C] | 0.39
UAACAGGGGGCCACAGCAGAAGCGUUCACGUCGCAGCCCCUGUCAGAUUCUGGUGGAGCUGCGGAUUCUGCUGUAUAUCUC [A56G U58G A64G] | 0.18
UAACAGGGGGCCACAGCAGAAGCGUUCACGUCGCAGCCCCUGUCAGAUUCUGGUGUAUCUGCGAAUUCGGCAGUAUAUCUC [A56U U69G U72A] | 0.25
UAACAGGGGGCCACAGCAGAAGCGUUCACGUCGCAGCCCCUGUCAGAUUCUGGUGGAUCUGCGAUUUCUGCAGUAUAUCUC [A56G A65U U72A] | 0.13
UAACAGGGGGCCACAGCAGAAGCGUUCACGUCGCAGCCCCUGUCAGAUUCUGGGGAACCUGCGGAUUCUGGUGUAUAUCUC [U54G U58C A64G C71G] | 0.24
UAACAGGGGGCCACAGCAGAAGCGUUCACGUCGCAGCCCCUGUCAGAUUCUGGUGAGUCUGCGAGUCCUGCUGUAUACCUC [A57G A65G U67C U78C] | 0.4
UAACAGGGGGCCACAGCAGAAGCGUUCACGUCGCAGCCCCUGUCAGAUUCUGGCGAAUCCGCGGAUUCUGCUGUAUAUCUC [U54C U60C A64G] | 0.37
UAACAGGGGGCCACAGCAGAAGCGUUCACGUCGCAGCCCCUGUCAGAUUCUGGUGGAUCUGAGUAUCCUGCUGUAUAUCUC [A56G C62A A64U U67C] | 0.36
